Test results published in the antibiotic and cytotoxicity screens of Wong et al. (2023).
The other results are listed elsewhere or left out.

Tests used:
[1] = system: HSkMC (human skeletal muscle cells); assay: cytotoxicity call (relative viability < 0.9); conditions: 10 µM
[2] = system: HepG2; assay: cytotoxicity call (relative viability < 0.9); conditions: 10 µM
[3] = system: S. aureus RN4220; assay: growth inhibition call (relative growth <= 0.2); conditions: 50 µM

C[C@@H]1CN([C@H](C)CO)C(=O)c2cccc(NC(=O)c3ccc(-c4nccs4)cc3)c2O[C@@H]1CN(C)C(=O)Nc1ccc2c(c1)OCO2
inactive: cytotoxicity call [1] | cytotoxicity call [2] | growth inhibition call [3]

C[C@H]1CN([C@@H](C)CO)C(=O)Cc2cc(NC(=O)CCC(F)(F)F)ccc2O[C@@H]1CN(C)S(=O)(=O)c1cn(C)cn1
inactive: cytotoxicity call [1] | cytotoxicity call [2] | growth inhibition call [3]

O=C1O[C@H](c2ccccc2)[C@H](c2ccccc2)N2[C@H]1[C@@H](C(=O)O)[C@]1(C(=O)Nc3ccc(C#CC4(O)CCCCCC4)cc31)[C@H]2c1ccc(OCCO)cc1
inactive: cytotoxicity call [1] | cytotoxicity call [2] | growth inhibition call [3]

CCCNC(=O)N(C)C[C@H]1Oc2cc(C#Cc3cccc(F)c3)ccc2S(=O)(=O)N([C@H](C)CO)C[C@@H]1C
inactive: cytotoxicity call [1] | cytotoxicity call [2] | growth inhibition call [3]

C[C@@H]1CCCCO[C@@H](CN(C)C(=O)C2CCCCC2)[C@@H](C)CN([C@@H](C)CO)C(=O)c2cc(NC(=O)CCC(F)(F)F)ccc2O1
inactive: cytotoxicity call [1] | cytotoxicity call [2] | growth inhibition call [3]

C[C@@H]1CCCCO[C@@H](CN(C)S(=O)(=O)c2ccccc2)[C@H](C)CN([C@@H](C)CO)C(=O)c2cc(NC(=O)Nc3ccc4c(c3)OCO4)ccc2O1
inactive: cytotoxicity call [1] | cytotoxicity call [2] | growth inhibition call [3]

Cc1noc(C)c1NC(=O)N(C)C[C@H]1Oc2ccc(NC(=O)Nc3ccc(C(F)(F)F)cc3)cc2C(=O)N([C@@H](C)CO)C[C@@H]1C
inactive: cytotoxicity call [1] | cytotoxicity call [2] | growth inhibition call [3]

COc1ccc(C(=O)Nc2cccc(CN3C(=O)[C@]4(O[C@H](CC(=O)N5CCC[C@H]5CO)[C@@H]([Si](C)(C)c5ccc(OC)cc5)[C@@H]4C)c4ccccc43)c2)cc1
inactive: cytotoxicity call [1] | cytotoxicity call [2] | growth inhibition call [3]
